Test results published in article PMC9911399, “Two distinct binding modes provide the RNA-binding protein RbFox with extraordinary sequence specificity”.
Positions count from the first letter of the chain named. The list shows a part of the results.

T1: RBFOX1 RRM (Homo sapiens, UniProt Q9NWB1 109-208)
T1 sequence: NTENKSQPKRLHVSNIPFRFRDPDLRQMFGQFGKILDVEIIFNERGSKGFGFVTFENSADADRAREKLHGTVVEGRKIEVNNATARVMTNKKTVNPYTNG

B1: CUUCUCC (DNA:RNA)
RNA: GGGAGACCGGAAUUCAGAUUGUCCCUUCUCCUUAAAUCCCGUCGUAGCCACCA
DNA 1: CAATCTGAATTCCGGTCTCCC
DNA 2: TGGTGGCTACGACGGGATT
B2: UACGAAU (DNA:RNA)
RNA: GGGAGACCGGAAUUCAGAUUGUCCUACGAAUUUAAAUCCCGUCGUAGCCACCA
DNA 1: CAATCTGAATTCCGGTCTCCC
DNA 2: TGGTGGCTACGACGGGATT
B3: UCGAUUG (DNA:RNA)
RNA: B1 RNA with C25U, U26C, U27G, C28A, C30U, C31G
DNA 1: CAATCTGAATTCCGGTCTCCC
DNA 2: TGGTGGCTACGACGGGATT
B4: ACCGAAC (DNA:RNA)
RNA: B2 RNA with U25A, A26C, U31C
DNA 1: CAATCTGAATTCCGGTCTCCC
DNA 2: TGGTGGCTACGACGGGATT
B5: UGGUCAG (DNA:RNA)
RNA: B2 RNA with A26G, C27G, G28U, A29C, U31G
DNA 1: CAATCTGAATTCCGGTCTCCC
DNA 2: TGGTGGCTACGACGGGATT
B6: CCGAAUU (DNA:RNA)
RNA: B2 RNA with U25C, A26C, C27G, G28A, A30U
DNA 1: CAATCTGAATTCCGGTCTCCC
DNA 2: TGGTGGCTACGACGGGATT
B7: UCACCGC (DNA:RNA)
RNA: B1 RNA with C25U, U26C, U27A, U29C, C30G
DNA 1: CAATCTGAATTCCGGTCTCCC
DNA 2: TGGTGGCTACGACGGGATT
B8: UAUGUGC (DNA:RNA)
RNA: B1 RNA with C25U, U26A, C28G, C30G
DNA 1: CAATCTGAATTCCGGTCTCCC
DNA 2: TGGTGGCTACGACGGGATT
B9: UGCCGAC (DNA:RNA)
RNA: B2 RNA with A26G, G28C, A29G, U31C
DNA 1: CAATCTGAATTCCGGTCTCCC
DNA 2: TGGTGGCTACGACGGGATT
B10: AGUUUGC (DNA:RNA)
RNA: B1 RNA with C25A, U26G, C28U, C30G
DNA 1: CAATCTGAATTCCGGTCTCCC
DNA 2: TGGTGGCTACGACGGGATT
B11: GCAGCGA (DNA:RNA)
RNA: B2 RNA with U25G, A26C, C27A, A29C, A30G, U31A
DNA 1: CAATCTGAATTCCGGTCTCCC
DNA 2: TGGTGGCTACGACGGGATT
B12: AGAUGGA (DNA:RNA)
RNA: GGGAGACCGGAAUUCAGAUUGUCCAGAUGGAUUAAAUCCCGUCGUAGCCACCA
DNA 1: CAATCTGAATTCCGGTCTCCC
DNA 2: TGGTGGCTACGACGGGATT
B13: UGGCGAG (DNA:RNA)
RNA: B12 RNA with A25U, A27G, U28C, G30A, A31G
DNA 1: CAATCTGAATTCCGGTCTCCC
DNA 2: TGGTGGCTACGACGGGATT
B14: AUGUAGC (DNA:RNA)
RNA: B12 RNA with G26U, A27G, G29A, A31C
DNA 1: CAATCTGAATTCCGGTCTCCC
DNA 2: TGGTGGCTACGACGGGATT
B15: GGACCUU (DNA:RNA)
RNA: B12 RNA with A25G, U28C, G29C, G30U, A31U
DNA 1: CAATCTGAATTCCGGTCTCCC
DNA 2: TGGTGGCTACGACGGGATT
B16: GGUCGGC (DNA:RNA)
RNA: B12 RNA with A25G, A27U, U28C, A31C
DNA 1: CAATCTGAATTCCGGTCTCCC
DNA 2: TGGTGGCTACGACGGGATT
B17: UAAUCAC (DNA:RNA)
RNA: B2 RNA with C27A, G28U, A29C, U31C
DNA 1: CAATCTGAATTCCGGTCTCCC
DNA 2: TGGTGGCTACGACGGGATT
B18: ACGUGAG (DNA:RNA)
RNA: B12 RNA with G26C, A27G, G30A, A31G
DNA 1: CAATCTGAATTCCGGTCTCCC
DNA 2: TGGTGGCTACGACGGGATT
B19: CAUAAGU (DNA:RNA)
RNA: B2 RNA with U25C, C27U, G28A, A30G
DNA 1: CAATCTGAATTCCGGTCTCCC
DNA 2: TGGTGGCTACGACGGGATT
B20: UAGCCUG (DNA:RNA)
RNA: B2 RNA with C27G, G28C, A29C, A30U, U31G
DNA 1: CAATCTGAATTCCGGTCTCCC
DNA 2: TGGTGGCTACGACGGGATT
B21: AUAUGUC (DNA:RNA)
RNA: B12 RNA with G26U, G30U, A31C
DNA 1: CAATCTGAATTCCGGTCTCCC
DNA 2: TGGTGGCTACGACGGGATT
B22: CCCUAAC (DNA:RNA)
RNA: B2 RNA with U25C, A26C, G28U, U31C
DNA 1: CAATCTGAATTCCGGTCTCCC
DNA 2: TGGTGGCTACGACGGGATT
B23: CACUGGU (DNA:RNA)
RNA: B12 RNA with A25C, G26A, A27C, A31U
DNA 1: CAATCTGAATTCCGGTCTCCC
DNA 2: TGGTGGCTACGACGGGATT
B24: CCCUCGC (DNA:RNA)
RNA: B12 RNA with A25C, G26C, A27C, G29C, A31C
DNA 1: CAATCTGAATTCCGGTCTCCC
DNA 2: TGGTGGCTACGACGGGATT
B25: UCGUUUU (DNA:RNA)
RNA: B2 RNA with A26C, C27G, G28U, A29U, A30U
DNA 1: CAATCTGAATTCCGGTCTCCC
DNA 2: TGGTGGCTACGACGGGATT
B26: GUGGUCG (DNA:RNA)
RNA: B1 RNA with C25G, U27G, C28G, C31G
DNA 1: CAATCTGAATTCCGGTCTCCC
DNA 2: TGGTGGCTACGACGGGATT
B27: CGAUUAA (DNA:RNA)
RNA: B12 RNA with A25C, G29U, G30A
DNA 1: CAATCTGAATTCCGGTCTCCC
DNA 2: TGGTGGCTACGACGGGATT
B28: UUCUCGC (DNA:RNA)
RNA: B12 RNA with A25U, G26U, A27C, G29C, A31C
DNA 1: CAATCTGAATTCCGGTCTCCC
DNA 2: TGGTGGCTACGACGGGATT
B29: UAAAAAG (DNA:RNA)
RNA: B2 RNA with C27A, G28A, U31G
DNA 1: CAATCTGAATTCCGGTCTCCC
DNA 2: TGGTGGCTACGACGGGATT
B30: UCCUUGC (DNA:RNA)
RNA: B12 RNA with A25U, G26C, A27C, G29U, A31C
DNA 1: CAATCTGAATTCCGGTCTCCC
DNA 2: TGGTGGCTACGACGGGATT
B31: GAGCUAC (DNA:RNA)
RNA: B1 RNA with C25G, U26A, U27G, C30A
DNA 1: CAATCTGAATTCCGGTCTCCC
DNA 2: TGGTGGCTACGACGGGATT

Molecular target: T1, RBFOX1 RRM
Experiment: EMSA; HiTS-Eq, 1 nM pool, 10 min; buffer printed only for the single-RNA assays: 10 mM Tris pH 7.5, 150 mM NaCl, 3.4 mM EDTA, 0.001% NP-40, 30 C
Settings: tags: His6 N-terminal (pET28a); label: 5' 32P
Summary of the method: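 Purified RbFox RRM, wild type or mutant, was incubated for 10 min in 50 µL with 1 nM of a 5′-radiolabelled RNA pool carrying 7 randomized nucleotides, whose flanks were annealed to DNA oligonucleotides, over a series of increasing protein concentrations. Unbound RNA was resolved on 8% native PAGE, cut out, reverse-transcribed, barcoded by PCR and sequenced on an Illumina HiSeq 2500. Relative association constants were derived from changes in read counts for each RNA species versus the control reaction and normalised to the cognate motif.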

Question: Which binding signal does the source give for B1 here?
Answer: 0.0114 KA relative to UGCAUGU

Question: With B2 as the binder, how does the binding signal read?
Answer: 0.0095 KA relative to UGCAUGU

Question: With B3 as the binder, how does the binding signal read?
Answer: 0.0206 KA relative to UGCAUGU

Question: B4 was tested. Which binding signal did it give?
Answer: 0.00249 KA relative to UGCAUGU

Question: With B5 as the binder, how does the binding signal read?
Answer: 0.0151 KA relative to UGCAUGU

Question: For B6, which binding signal is on record?
Answer: 0.00468 KA relative to UGCAUGU

Question: How did the binding signal turn out when B7 was run?
Answer: 0.0036 KA relative to UGCAUGU

Question: Which binding signal does the source give for B8 here?
Answer: 0.0265 KA relative to UGCAUGU

Question: How did the binding signal turn out when B9 was run?
Answer: 0.0163 KA relative to UGCAUGU

Question: Which binding signal does the source give for B10 here?
Answer: 0.0183 KA relative to UGCAUGU

Question: Which binding signal does the source give for B11 here?
Answer: 0.012 KA relative to UGCAUGU

Question: B12 was tested. Which binding signal did it give?
Answer: 0.00205 KA relative to UGCAUGU

Question: Which binding signal does the source give for B13 here?
Answer: 0.0215 KA relative to UGCAUGU

Question: With B14 as the binder, how does the binding signal read?
Answer: 0.00979 KA relative to UGCAUGU

Question: With B15 as the binder, how does the binding signal read?
Answer: 0.015 KA relative to UGCAUGU

Question: How did the binding signal turn out when B16 was run?
Answer: 0.00742 KA relative to UGCAUGU

Question: B17 was tested. Which binding signal did it give?
Answer: 0.00552 KA relative to UGCAUGU

Question: With B18 as the binder, how does the binding signal read?
Answer: 0.00861 KA relative to UGCAUGU

Question: With B19 as the binder, how does the binding signal read?
Answer: 0.00453 KA relative to UGCAUGU

Question: With B20 as the binder, how does the binding signal read?
Answer: 0.0274 KA relative to UGCAUGU

Question: Which binding signal does the source give for B21 here?
Answer: 0.0093 KA relative to UGCAUGU

Question: With B22 as the binder, how does the binding signal read?
Answer: 0.000399 KA relative to UGCAUGU

Question: For B23, which binding signal is on record?
Answer: 0.00963 KA relative to UGCAUGU

Question: How did the binding signal turn out when B24 was run?
Answer: 0.012 KA relative to UGCAUGU

Question: With B25 as the binder, how does the binding signal read?
Answer: 0.0134 KA relative to UGCAUGU

Question: Which binding signal does the source give for B26 here?
Answer: 0.0242 KA relative to UGCAUGU

Question: With B27 as the binder, how does the binding signal read?
Answer: 0.00204 KA relative to UGCAUGU

Question: For B28, which binding signal is on record?
Answer: 0.0146 KA relative to UGCAUGU

Question: For B29, which binding signal is on record?
Answer: 0.0059 KA relative to UGCAUGU

Question: For B30, which binding signal is on record?
Answer: 0.0155 KA relative to UGCAUGU

Question: With B31 as the binder, how does the binding signal read?
Answer: 0.0141 KA relative to UGCAUGU
